Test results from the supplement of paper PMC11417369.
± gives the standard deviation of the averaged measurements. This is one part of the list.

What follows are sequences tested on PfAP2-I AP2 domain 3 (GST-tagged) (assay: gcPBM binding intensity (ln(normalized median fluorescence intensity)); higher = stronger DNA binding).
Summary of the method: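 Each value is the highest Masliner-normalised natural-log median intensity across replicate spots of either orientation of a probe. The probes were primer-extended double-stranded 36-bp intergenic genomic sequences on an Agilent 4 × 180k array, alongside negative controls, exposed for 1 h to GST-tagged P. falciparum DNA-binding domains expressed in E. coli. Bound protein was picked up with Alexa488 anti-GST antibody and scanned at 488 nm.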

Sequence | gcPBM binding intensity (ln)
TTTATTATATTTATATGTACTTATATAATATATGCA [XGTACX_site1906] | 7.86 ± 0.3
TTATAAATATAATATTGTACAAAATTTTAACATGTC [XGTACX_site5259] | 7.61 ± 0.49
CTTATGTGTATAAGTAGTACTAAATTAAAATAATAT [XGTACX_site2681] | 7.95 ± 0.29
TATACATATATAATATGTACATATATTTTTTTTTAA [XGTACX_site2938] | 7.38 ± 0.24
CATAAAAATATTTTCTGTACATATTCATATGACGTT [XGTACX_site3406] | 7.91 ± 0.46
ATAAATAAAATTAGGTGTACTTTAATTAAAGAAAAT [XGTACX_site3319] | 8.17 ± 0.33
AGGTTCCCAAAATGCACACCAATGAAATTATTTATT [CACACA_site553] | 9.31
ATAAATATTGGGTGCACACACATAATATATATATAT [CACACA_site2272] | 10.8 ± 0.45
AAAATAAAAAATATAACACACAATAAATATATATAT [CACACA_site1926] | 8.965 ± 0.021
TATACAAAATAACTAGCACACATATGTATAAACATA [CACACA_site9236] | 7.73 ± 0.47
ATTTCCTGGCTACTGTGTACTGACCTCCAGACTGCT [XGTACX_site2005] | 7.79 ± 0.98
TTTTAACTTTTATATTGTACGTTGTTTATTTTATTT [XGTACX_site7504] | 7.91 ± 0.77
ATAATCATTTGGATATTCACAATATTTAAAATTAAA [CACACA_negctrl_site909] | 7.55 ± 0.54
GAAAAAAAAAAAAAAAAAAAAAAATTCATTTTTTTT [XGTACX_negctrl_site54] | 7.38 ± 0.66
ATGGAAAAAAAGCATTGTACATTTAAAGAAAAACAG [XGTACX_site6639] | 8.35 ± 0.45
TATTATATTTGTATGTGTACTTATATGGTTGTAATA [XGTACX_site4548] | 7.87 ± 0.26
AACGAAAACACTACGTGTACCAAATGTCCTGCCAAC [XGTACX_site5735] | 7.83 ± 0.71
AAATATTATCAAACATAAATTATTTTTATCCGTATA [CACACA_negctrl_site771] | 7.46 ± 0.69
TCTCTAATTTTTAATACACACAAATAAATAAATAAA [CACACA_site216] | 8.02 ± 0.57
AAAAAAATATAGATCTGTACATATATAAATATATGT [XGTACX_site511] | 7.46 ± 0.35
ATATATGTTAATAATTGTACAAATCGATAATATATA [XGTACX_site5076] | 7.86 ± 0.5
AATGTATATTATTGCACACATATATAAAATTATGCT [CACACA_site1096] | 10.1 ± 0.27

Sequence | gcPBM binding intensity (ln)
ATTTGTGAATATATTCGGTGAACTTTGTTAACACAT [XGTACX_negctrl_site445] | 7.79 ± 0.61
ATCTCTATGATATATACACACAAATATACAAAAAAA [CACACA_site6605] | 7.84 ± 0.51
AATCTAATTAAAATCACACATATATTCGTCGTAATA [CACACA_site5855] | 7.47 ± 0.47
AAAAAATTAACGAGTGCACACATATTTAGATAAAAT [CACACA_site8958] | 9.86 ± 0.18
ATATATATATATATAACACACGTGTATTTATCTGTA [CACACA_site5922] | 9.34 ± 0.58
ATATATATATATATGTGTACACAAAAAATATTATAT [XGTACX_site5741] | 9.32 ± 0.54
ATTCAAAAAAAATCAACACACAGTTACATAGCTCAA [CACACA_site2234] | 7.5 ± 0.49
ATTCCATAAGTAAACACACAAATGCCAAAATTTTAT [CACACA_site7491] | 7.76 ± 0.59
GCACATATATATGAAACACACATGGAAACATCTCTT [CACACA_site3966] | 7.75 ± 0.59
AAAAAAAAAAAAAAATGTACATATAAATAAATATAT [XGTACX_site7248] | 8.06 ± 0.42
ACAACATAGAGGGGCACACACATATATACATAAAAA [CACACA_site6954] | 8.63 ± 0.085
TAATATCCATATAAAACACACATCAAGGTTGTTAAC [CACACA_site175] | 7.64 ± 0.61
TATGTGCACCCATATACACACACAAATACAATGATA [CACACA_site8295] | 11.3 ± 0.85
AATTCATATACAAAAAGTACAAACGAAAAATAAAAA [XGTACX_site2900] | 7.86 ± 0.45
GTTATATAAAAATATTGTACATTCTATATAAAGTCA [XGTACX_site4418] | 7.66 ± 0.45
ATGTTTTATATTATTAATATATATATATATATATAT [CACACA_negctrl_site331] | 9.14 ± 0.55
TTTATTTATTATTAAAGTACTAAATTATATTATTAT [XGTACX_site2565] | 7.39 ± 0.53
AGGCATAATTAAAAGTAACAATTATGGAAACGGAGT [GTGCAC_negctrl_site623] | 7.99 ± 0.75
AAAAAAAAAAAAAACACACACATGCACCTCATATTA [CACACA_site556] | 8.99 ± 0.3
TTTCGTAACTATTTGTGTACATATATATATATATAT [XGTACX_site2920] | 9.57 ± 0.45
ATTTTCTTTTCCATAGTGCAATATAATTATCCATCA [GTGCAC_site9547] | 11.3 ± 0.39
ATAAATATATGAAATATACACACTTCTTTGGTATTA [CACACA_site456] | 7.67 ± 0.52

Sequence | gcPBM binding intensity (ln)
ATACATATATATATGTGTACATATTATATATACATA [XGTACX_site8420] | 7.71 ± 0.29
TTTCCATATATAGAACGTACAAAGATCTTTGTTACT [XGTACX_site8972] | 7.63 ± 0.64
TAGCTTTTGCCTTTTTTTAAAAAAAAATAAATAAAT [TGCATGCA_negctrl_site242] | 7.67 ± 0.46
TATATATATTTATACACACAAACATAATACTACTTA [CACACA_site2022] | 7.97 ± 0.5
TTTTTTTTTATGTGCACACAAAAGATGCTTATATTT [CACACA_site2348] | 10.69 ± 0.092
TGCATATACATATGTAGTACAATAATTTGAAAAAAA [XGTACX_site5239] | 7.92 ± 0.43
TATATATGGTATAATTGTACTAACGCCAACTATACC [XGTACX_site5853] | 7.86 ± 0.3
TTATTATTTTATAACACACACATATAGATTATAGCT [CACACA_site6787] | 7.84 ± 0.53
ATATATATATATATAAAGTGAAGTATGAGGGAAATA [XGTACX_negctrl_site497] | 9.38 ± 0.49
TATGTATGTATTAATGCGCACACAAAAAATAACAAT [CACACA_site8551] | 8.95 ± 0.38
AAAAATTAAATATAAAGTACAAAATTAAAATCTTAA [XGTACX_site931] | 7.38 ± 0.41
TTTTGTATTTATGGATGTACATAATATGTTTTAAAC [XGTACX_site3278] | 8 ± 0.45
TATGACCTTAGAAATTGTACAAGAAAAAATGTTACA [XGTACX_site7084] | 7.78 ± 0.58
ATATAAAATACATGGGTGCAATATATTAAACAAATA [GTGCAC_site9421] | 11.2 ± 0.48
GTTATAAATAAATACACACATACAAAAATATGACGT [CACACA_site1154] | 7.67 ± 0.45
TCACATACATGAAAATGTACTTTTATAATTCCATAA [XGTACX_site1836] | 7.75 ± 0.45
ATCGTGAATAATATCTGTACATATGAACACATATAT [XGTACX_site952] | 7.92 ± 0.54
TAAAGGTGAACAATACGTACATAAGAACTTATGAGG [XGTACX_site4216] | 7.97 ± 0.67
TCTGTAAATACGTGCACACACAAATCACAAATGTGA [CACACA_site330] | 10.78 ± 0.099
TAAATAATTTCACGAATGACAAAGATATAATAAGTT [CACACA_negctrl_site1430] | 7.76 ± 0.76
ATAAATACACACAAGTGTACATACTTCTATAAATAT [XGTACX_site1845] | 7.83 ± 0.28
ATATTATAATAAATGTGTACATATTGTAGAAATATT [XGTACX_site8101] | 7.88 ± 0.5

Sequence | gcPBM binding intensity (ln)
AATTATTTACCCTATACACACAAAACACGCTAAAAA [CACACA_site1211] | 8.2 ± 0.54
TATTATATATTAAATGCATGTAAAAATAATATTAAA [TGCATGCA_site643] | 8.11 ± 1.3
ATTTTGTGCGCACACACATGCAAAAAGAAATATGAT [TGCATGCA_site261] | 10.74 ± 0.021
AAAGAGAGTATCTAATGTACGTATGTATGTATATAT [XGTACX_site1780] | 7.92 ± 0.44
TATATATATATATGTGCATGTTCCCCATGCTTCCAT [TGCATGCA_site366] | 9.43 ± 0.3
AAAATTATAATAATATGTACTTAAAAAATTTATATA [XGTACX_site632] | 7.54 ± 0.2
TATATGTATTTATATACACACATATTCTTTTGACAC [CACACA_site1206] | 7.58 ± 0.38
AATATATATATATATAGTACATATTTTTATTCATTA [XGTACX_site2156] | 7.68 ± 0.31
TTCTTCAAGGAAAACACATGCGCATTTTCACCAATT [TGCATGCA_site11] | 8.23 ± 1
ATATATATATATATATGTACATATGTATATTTTTTT [XGTACX_site1299] | 9.15 ± 0.52
AATACACAAATATATTGTACATATATATATATATAT [XGTACX_site2440] | 9.24 ± 0.57
CATATATAAATATAAATATATATATATATATATATG [XGTACX_negctrl_site493] | 8.03 ± 0.39
ACTTATTATTAATATTGTACTCTTGAAAATTGTGGA [XGTACX_site6315] | 7.91 ± 0.4
ATATATATTTTTTAAACACACACATAAATATTTGTG [CACACA_site8936] | 7.97 ± 0.38
CAAAAGTATAATAATACACACACTTTAAAAGTTAAA [CACACA_site3343] | 7.7 ± 0.38
TAGATTCTTGAATAAGTGCAAAATATAATATTTATT | 9.975 ± 0.007
AAAAATAAAATAAAATAAAATAAACATACCATATGT [CACACA_negctrl_site594] | 7.46 ± 0.63
TTACAAATGGTTTACACACACATAATTGTATCAATT [CACACA_site4167] | 7.86 ± 0.23
TAATATATGAGAAATTGTACAGAAAGGAATATGCTT [XGTACX_site5300] | 7.96 ± 0.8
AAGAAATATTTATACACACACACAAACATATATATA [CACACA_site1912] | 8.28 ± 0.71
ATATTATTGTAGAAATGTACATATATATATATATAT [XGTACX_site1882] | 9.31 ± 0.38
TATATATGTTCAATATGTACATATATATAAGTGTAT [XGTACX_site5157] | 7.85 ± 0.51
